The record followed here is paper PMC12040169 (PLOS Biology, 2025).

Some of the results follow.

This assay relates to T1, C. trachomatis L2/434/Bu expressing GFP (CTL2-GFP).
T1 construct: L2/434/Bu GFP intracellular growth in HeLa cells
Also on record: species or system HeLa; C. trachomatis total inclusion area by high-content imaging, normalised to DMSO. To be noted: total inclusion area; 28.5 h, 10 µM; inhibitor. In a few lines: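 Host cell viability was gauged from Hoechst-stained nuclei counts, while chlamydial growth was taken from total inclusion area and inclusion number per well. Cells were fixed and imaged by high-content microscopy once bulk GFP and resorufin fluorescence had been measured.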
As for `O=c1c([N+](=O)[O-])c(O)c2ccccc2n1Cc1ccccc1` [CBK291182], the “% of control remaining” value is recorded as 108.206.

As to `CC1Cc2cc(-c3cncn3CC(=O)NC(C)(C)C)ccc2N1C` (stereo not drawn) [CBK281699], the “% of control remaining” value was found to be 97.1271.

Consider `C=C(C)Cn1c(-c2ccc(N)cc2)nc2ccccc21` [CBK287581], for which the “% of control remaining” value is 77.9898.

With `C[C@@H](Nc1cncc(-c2ccccc2CO)n1)c1ccccc1` [CBK065543], the “% of control remaining” value is listed as 122.145.

Consider `COc1nc2ccn(CC(O)CO)c(=O)c2cc1C#N` (stereo not drawn) [CBK307251], for which the “% of control remaining” value came out at 85.1109.

For `Cc1cc(C)n(-c2ccnc(NCCc3cccnc3)n2)n1` [CBK288615], the “% of control remaining” value is on record as 58.2805.

In the case of `Cc1ccc(C(=O)N2CCC(c3nc4ccccc4s3)CC2)cc1NS(C)(=O)=O` [CBK254629], the “% of control remaining” value was 111.283.

Take `Fc1ccc(-c2cncc(Nc3cccc(C(F)(F)F)c3)n2)c(F)c1` [CBK065763]: the “% of control remaining” value is on record as 150.184.

As to `Cn1c(SCc2cccc3ccccc23)nnc1-c1ccc(NC(=O)/C=C/c2ccccc2)cc1` [CBK265034], the “% of control remaining” value turned out to be 110.711.

`O=C(NCCCN1CCOCC1)C1CCCN1S(=O)(=O)c1ccc(Cl)cc1` (stereo not drawn) [CBK269944]: the “% of control remaining” value was found to be 93.5872.

Regarding `CC1CCN(CCNC(=O)CCc2nc3ccc(Cl)cc3[nH]2)CC1` [CBK281599], the “% of control remaining” value turned out to be 86.7354.

As to `COc1ccccc1CN1CCC(Cc2ccccc2-c2ccccc2)(C(N)=O)CC1` [CBK285719], the “% of control remaining” value is reported as 106.935.

As to `O=[N+]([O-])c1ccc(NCCCNS(=O)(=O)c2ccc3ccccc3c2)c(Cl)c1` [CBK262006], the “% of control remaining” value was 100.028.

Regarding `Cc1cc(=O)[nH]c(SCc2nc3ccccn3c2Br)n1` [CBK296063], the “% of control remaining” value came to 103.807.

`CCCC(=O)N1CCC(c2nc3ccc(F)cc3cc2N)CC1` [CBK284655]: the “% of control remaining” value is on record as 99.2749.

As to `OC(CN1CCC(O)(c2cccc(C(F)(F)F)c2)CC1)c1ccccc1` (stereo not drawn) [CBK286324], the “% of control remaining” value was found to be 79.1833.

With `COc1ccc(OCC(=O)Nc2ccc3c(c2)nc2n3CCN(Cc3ccccc3)C2)cc1` [CBK266989], the “% of control remaining” value was 108.78.

On to `O=C(CCn1ccc2ccncc21)NCCc1c[nH]c2ccccc12` [CBK284760], for which the “% of control remaining” value is reported as 58.2826.

Consider `COc1c(S(=O)(=O)N2CCN(Cc3ccc4c(c3)OCO4)CC2)ccc(Cl)c1Cl` [CBK074423], for which the “% of control remaining” value came to 86.0897.

Consider `O=S(=O)(c1cccc(C(F)(F)F)c1)N1CCN(Cc2ccc3c(c2)OCO3)CC1` [CBK074594], for which the “% of control remaining” value turned out to be 77.4547.

For the compound `CCn1ncc(CN2CCN(C(=O)c3nn(C)cc3C(=O)O)CC2)c1C` [CBK286870], the “% of control remaining” value is given as 104.206.

As for `O=C1CC(c2cc(Br)ccc2F)c2scc(-c3ccccc3F)c2N1` (stereo not drawn) [CBK294440], the “% of control remaining” value came to 92.7896.

Take `O=C1CN(C(=O)NCc2ccc(F)cc2)CCN1` [CBK155869]: the “% of control remaining” value was 106.835.

With `CCCN1CCC2CN(CCCC(=O)c3ccc(F)cc3)CCN2C1=O` (stereo not drawn) [CBK024882C], the “% of control remaining” value was determined as 58.7635.

As to `O=C(CCN1C(=O)COc2ccccc21)Nc1ccnn1Cc1ccccc1Br` [CBK296740], the “% of control remaining” value was determined as 113.13.

As for `Cc1ccc(CN2CCCN(C(=O)CCn3cnc4c(cnn4C)c3=O)CC2)cc1` [CBK297793], the “% of control remaining” value is recorded as 84.282.

For `O=C(C1CCN(Cc2ccc(F)cc2)CC1)N1CCN(C/C=C/c2ccccc2)CC1` [CBK264325G], the “% of control remaining” value is 79.1915.

As for `COc1ccc(NCc2cc3sccc3n2C)cc1OC` [CBK283486], the “% of control remaining” value is on record as 111.914.

As for `Cc1ccc(-c2cc(C(=O)Nc3ccc(S(N)(=O)=O)cc3)c3ccc(Cl)c(C)c3n2)cc1` [CBK267745], the “% of control remaining” value is 96.7995.

In the case of `Cc1cnn(C2CCN(C(=O)NC(C)C3OCCc4sccc43)C2)c1` (stereo not drawn) [CBK304159], the “% of control remaining” value is on record as 46.998.

In the case of `Cc1noc(C)c1C(=O)Nc1sc2c(c1C(=O)NCc1ccco1)CCCCCC2` [CBK268112], the “% of control remaining” value is recorded as 106.621.

For the compound `Cc1noc(C2(O)CCN(Cc3cccc(Cl)c3F)C2)n1` (stereo not drawn) [CBK304748], the “% of control remaining” value is 5.797.

With `Cc1nccn1CC1(O)CCN(CC(C)c2ccccc2)CC1` (stereo not drawn) [CBK284954], the “% of control remaining” value turned out to be 84.5774.

Regarding `Cc1nnc(SCCOc2ccc(Cl)c(C)c2)s1` [CBK026160], the “% of control remaining” value stood at 57.0927.

Regarding `CCn1c(=O)n(CC(C)(C)O)c2cc(S(=O)(=O)N(C)C)ccc21` [CBK304893], the “% of control remaining” value was determined as 73.7772.

Regarding `Cc1ccc(C(=O)CCC(=O)N2CCCC2c2ccc(F)cc2)cc1` (stereo not drawn) [CBK297885], the “% of control remaining” value is listed as 81.3099.

Take `CCN(Cc1ccncc1)C(CC1CCCCC1)c1ccccc1` (stereo not drawn) [CBK061639T]: the “% of control remaining” value is 79.5399.

Regarding `Nc1ncc(-c2ccc(N3CCOCC3)cc2)nc1N1CCN(CCO)CC1` [CBK063394], the “% of control remaining” value is 114.735.

On to `CCc1nn(CC(=O)N2CCC(C)CC2)c(=O)c2cc3occc3n12` [CBK283675], for which the “% of control remaining” value is given as 101.139.

For the compound `O=C(Cc1c(O)c2ccccc2[nH]c1=O)NCc1ccc(Cl)cc1` [CBK160317], the “% of control remaining” value was 90.0507.

On to `Cc1nc2ccc(NC(=O)CC3CCN(S(=O)(=O)c4cccc(F)c4)CC3)cc2[nH]1` [CBK285903], for which the “% of control remaining” value was found to be 104.491.

For the compound `CC(=O)c1ccc(S(=O)(=O)NCC2CC2)cc1` [CBK044440], the “% of control remaining” value turned out to be 124.519.

As to `O=C(CCc1ccccc1)N1CCC(c2n[nH]c3ncccc23)CC1` [CBK284906], the “% of control remaining” value is 93.3733.

For `CCN(Cc1ccc(C#N)cc1F)C(=O)C(NC(=O)OC)C(C)C` (stereo not drawn) [CBK306372], the “% of control remaining” value was 88.6353.

In the case of `CCc1ccc2nc3c(cc2c1)CNCCO3` [CBK281940], the “% of control remaining” value worked out at 88.4397.

Turning to `O=C(O)C1(Cc2cccc(-c3cccs3)c2)CCCNC1` (stereo not drawn) [CBK281688], the “% of control remaining” value was 79.7509.

Regarding `Cc1ccc(CNC(=O)CSc2nnc(-c3ccncc3)n2-c2ccccc2)cc1` [CBK266654], the “% of control remaining” value came to 118.876.

As to `COc1ccc(-c2cnc(N)c(NC3CCOCC3)n2)c(OC)c1OC` [CBK063844], the “% of control remaining” value was 44.9356.

Turning to `COc1ccccc1CN(C)C(C)C(=O)Nc1ccc(S(N)(=O)=O)cc1` (stereo not drawn) [CBK305839], the “% of control remaining” value is given as 54.7169.

Consider `O=C(NCCNc1cnccn1)c1ccc(Br)cc1F` [CBK305639], for which the “% of control remaining” value was found to be 101.556.

With `CC(=O)Nc1ccc(S(=O)(=O)NC2(C(F)(F)F)C(=O)Nc3c2c(=O)[nH]c(=S)n3Cc2ccco2)cc1` (stereo not drawn) [CBK268395], the “% of control remaining” value amounted to 81.0272.

`CC(C)[C@H](CO)Nc1cncc(-c2cccc(N(C)C)c2)n1` [CBK065547]: the “% of control remaining” value is listed as 128.611.

`CN1CCC(N(C)C(=O)NCc2c(Cl)cccc2Cl)C1` (stereo not drawn) [CBK156014]: the “% of control remaining” value is listed as 128.433.

Take `CC(C)(C)C(=O)c1cnc2sc3ccccc3n12` [CBK016512]: the “% of control remaining” value was found to be 76.6671.

`CCOC(=O)C(NCc1nc(-c2cccc(C(F)(F)F)c2)no1)C(C)C` (stereo not drawn) [CBK305445]: the “% of control remaining” value is 117.827.

Take `Cc1sc2nc(SCCCC(=O)NCCO)nc(N)c2c1C` [CBK264482]: the “% of control remaining” value was 99.8038.

With `CSc1ccccc1CNC(=O)Cn1nnc(-c2ccc(CN3CCC(C)CC3)cc2)n1` [CBK144573C], the “% of control remaining” value is listed as 83.6769.

Take `O=C(CSc1cccs1)Nc1nccs1` [CBK019601]: the “% of control remaining” value is 81.0785.

On to `COc1cccc(CC(=O)Nc2ncccc2OCCCC#N)c1` [CBK304961], for which the “% of control remaining” value came out at 47.3117.

Turning to `O=C(NCc1cccc(C(F)(F)F)c1)N1CCN(c2ccc(F)cc2)CC1` [CBK156390], the “% of control remaining” value was found to be 104.479.

In the case of `CN(C)c1nc(Cl)c(C=Cc2cc(C(=O)O)c3ccccc3n2)s1` [CBK298272], the “% of control remaining” value is given as 142.471.

As for `CC(NC(=O)c1ccccc1)C(=O)OCn1nnc2ccccc2c1=O` (stereo not drawn) [CBK297001], the “% of control remaining” value turned out to be 73.4863.

Turning to `CN1CCC2(CCC1=O)CC(NC(=O)C1CC1)c1ccccc1O2` (stereo not drawn) [CBK284455], the “% of control remaining” value is on record as 57.6598.

Regarding `O=C(Cc1ccccc1)N1CCN(Cc2ccc3ccccc3c2)CC1` [CBK263037], the “% of control remaining” value was 83.6842.

On to `O=C(O)c1nsnc1C(=O)O` [CBK278311K], for which the “% of control remaining” value is 90.3455.

`COc1cc(-c2cnc(N)c(NCc3ccncc3)n2)cc(OC)c1OC` [CBK063646]: the “% of control remaining” value is 142.861.

Consider `Cc1ccc(-c2n[nH]c(=S)n2CCC(=O)N(C)Cc2ccc(N3CCCCC3)cc2)cc1` [CBK297904], for which the “% of control remaining” value is listed as 58.6739.

Regarding `Cc1ccc(-c2cc(C(=O)N(C)Cc3cccn3C)[nH]n2)o1` [CBK283324], the “% of control remaining” value came out at 82.1404.

`CC(C)(C)C(=O)/N=c1/[nH]nc(-c2cccnc2)s1` [CBK288203]: the “% of control remaining” value is given as 101.311.

Take `COc1ccc(C(CC(=O)O)c2ccc3c(c2)OCCO3)cc1OC` (stereo not drawn) [CBK287121]: the “% of control remaining” value stood at 120.144.

`Nc1nn2c(c1Cc1c(Cl)cccc1Cl)OC(=O)CCC2=O` [CBK093439]: the “% of control remaining” value amounted to 80.1122.

Turning to `CC(=O)N1CCCc2cc(NC(=O)NCCc3cnn(C)c3)ccc21` [CBK304937], the “% of control remaining” value was 27.5025.

Turning to `O=C(O)CNS(=O)(=O)c1ccc(-c2ccccc2)cc1` [CBK034457], the “% of control remaining” value amounted to 113.527.

For `Cc1ncccc1COC(=O)N1c2ccccc2CCC1C` (stereo not drawn) [CBK200204], the “% of control remaining” value came out at 52.5084.

On to `CCn1cc(CN(C)Cc2nccs2)c2cc(C(=O)O)ncc21` [CBK306512], for which the “% of control remaining” value is 67.7723.

`N#Cc1ccc(-c2cncc(NC3CCC(O)CC3)n2)cc1` (stereo not drawn) [CBK166007T]: the “% of control remaining” value amounted to 76.378.

On to `N#C/C(=C/c1cc(Cl)c(OCc2ccc([N+](=O)[O-])cc2)c(Cl)c1)c1ccc(C(=O)O)cc1` [CBK269098], for which the “% of control remaining” value is given as 87.507.

On to `Cn1ccnc1Sc1nc2ccccc2nc1C(F)(F)F` [CBK093778], for which the “% of control remaining” value is on record as 84.7712.

Take `CCc1onc(-c2ccccc2)c1C(=O)NCCO` [CBK160434]: the “% of control remaining” value amounted to 88.0671.

In the case of `O=C(NCc1ccccc1)c1ccc2nc[nH]c2c1` [CBK143739], the “% of control remaining” value came to 102.158.

For `Cc1ncccc1COC(=O)N1CCC(C(F)(F)F)CC1` [CBK200154], the “% of control remaining” value worked out at 86.8901.
